Marks after values point to notes of the source that are not given here.
Key:
human GLP1R [1] = biological target: T1, human GLP1R (Homo sapiens, UniProt P43220); assay: CRE-Luc cAMP responsive luciferase reporter assay in HEK293/CRE-Luc/hGLP1R cells; type: cell-based; design: engineered to express full-length human GLP1R (GenBank: AAI12127.1) (HEK293/CRE-Luc/hGLP1R); expressed in transfected cells; host or cells: HEK293/CRE-Luc (HEK293/FSC11/pCDNA3.1 + GLP1R, ACL6822)
Source text: To test the activity of GLP1R agonist linker-payloads (LPs) and anti-GLP1R antibody-tethered ligands (ATLs) of the invention, a cell-based cAMP responsive luciferase reporter assay was developed. To generate the assay cell line, the firefly luciferase gene was placed under the control of four copies of a cAMP response element (4×CRE) located upstream of a minimal promoter and transfected into HEK293 cells and referred to herein as HEK293/CRE-Luc cells. HEK293/CRE-Luc cells were then engineered to express full-length human GLP1R (GenBank: AAI12127.1) (HEK293/CRE-Luc/hGLP1R).
For all assays, cells were seeded into 384-well plates (Falcon #353988) at 6,000 cells/well in assay media (Opti-MEM, 1% FBS, 1×Penicillin-Streptomycin) and incubated overnight at 37° C. Serial dilutions of the anti-GLP1R ATLs and non-binding control ATLs were performed in assay media. Serial dilutions of linker-payloads (LPs) were performed in 100% DMSO (ATCC, #4-X-5), followed by 1:100 dilution in assay media. […]
For the CRE-Luc assay, after a 5-hours incubation at 37° C., luciferase activity was determined by addition of ONE-Glo reagent (Promega, #E6130) followed by measurement of relative light units (RLUs) on EnVision Plate Reader (Perkin Elmer).
(§1) EC50 values for luminescence assays were determined using a four-parameter logistic equation over a 12-point dose response curve (GraphPad Prism).

human GLP1R [2] = biological target: T1, human GLP1R; assay: b-arrestin 2 recruitment enzyme fragment complementation assay in HEK293/b-arrestin2/hGLP1R cells; type: cell-based; design: The full-length human GLP1R (NP_002053.3) with a C-terminus fusion to a small b-gal fragment called enzyme donor or ProLink (PK); host or cells: HEK293/b-arrestin2-EA (HEK293/Barrestin clone 2C6/hGLP1R-Prolink1 high sorted, ACL21687)
Source text: To test the recruitment of b-arrestin 1 and b-arrestin 2 to GLP1R upon receptor activation, two enzyme fragment complementation assays were developed. To generate the assay cell lines, b-arrestin 1 fused to the b-galactosidase (b-gal) reporter fragment called enzyme acceptor (EA) (i.e., b-arrestin1-EA) or b-arrestin 2 fused to the b-gal reporter fragment EA (i.e., b-arrestin2-EA) were transduced into HEK293 cells using PathHunter b-Arrestinl Retroparticles (DiscoverX, #83-OT-TB-N-01) or PathHunter b-Arrestin2 Retroparticles (DiscoverX, #93-1087), respectively. The full-length human GLP1R (NP_002053.3) with a C-terminus fusion to a small b-gal fragment called enzyme donor or ProLink (PK) (i.e., hGLP1R-PK) was then engineered into HEK293/b-arrestinl-EA cells and HEK293/b-arrestin2-EA cells to generate the cell lines referred herein as HEK293/b-arrestin1/hGLP1R and HEK293/b-arrestin2/hGLP1R. […]
For b-arrestin 1 and b-arrestin 2 recruitment assays, after a 1-hour incubation at 37° C., PathHunter Detection Reagent (Eurofins DiscoverX, #93-0001) was added to the wells followed by a 1-hour incubation at room temperature. RLUs were measured on EnVision Plate Reader (Perkin Elmer).
as §1

[3] = system: obese GLP1R humanized mice; assay: Percent body weight change in obese GLP1R humanized mice, comparison of nine ATLs (study 19.2); type: in vivo, mouse; details: for Percent body weight change from day 0 (mean): 25 mg/kg s.c. single dose
Source text: To determine body weight lowering effects of anti-GLP1R antibody-tethered-ligands (ATLs) of the invention in obese animals, mice homozygous for the expression of human GLP1R in place of mouse GLP1R (referred to as GLP1R humanized mice) were placed on high-fat diet (60% kcal % fat) for 4 months. Sixty-five, 6-month-old male, GLP1R humanized mice were stratified into ten groups of five to seven mice, based on their day 0 body weights. After the stratification, each group was subcutaneously administered with one of nine an anti-GLP1R ATLs or an isotype control antibody (referred to as Control) at 25 mg/kg on day 0.
At weeks one, two, four, six and eight post administration, body weights of the animals were recorded. Mean±SEM of percent changes in body weight from day 0 at each time point was calculated for each group and are shown in Table 33. Statistical analyses were performed by two-way ANOVA followed by Bonferroni post-hoc tests, comparing the Control group to the other nine groups.

T1 sequence (P43220 24-463): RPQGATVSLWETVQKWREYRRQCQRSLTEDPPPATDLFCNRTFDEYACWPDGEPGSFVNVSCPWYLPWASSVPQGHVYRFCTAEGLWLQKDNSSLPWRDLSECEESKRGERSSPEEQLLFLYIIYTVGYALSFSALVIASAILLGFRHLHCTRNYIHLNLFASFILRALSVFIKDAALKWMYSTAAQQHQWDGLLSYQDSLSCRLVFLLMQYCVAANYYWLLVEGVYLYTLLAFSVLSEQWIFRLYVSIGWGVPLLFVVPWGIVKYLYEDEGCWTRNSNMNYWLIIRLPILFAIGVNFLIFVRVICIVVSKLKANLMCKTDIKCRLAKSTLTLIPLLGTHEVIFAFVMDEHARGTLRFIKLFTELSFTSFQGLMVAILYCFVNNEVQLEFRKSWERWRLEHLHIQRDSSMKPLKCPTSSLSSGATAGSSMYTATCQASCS

B1: REGN15869-M3190 (conjugate)
heavy: [… about 100 residues …]GLIAPRPMGFDYWGQGTLVTVSSASTKGPSVFPLAPCSRSTSESTAALGCLVKDYFPEPVTVSWNSGALTSGVHTFPAVLQSSGLYSLSSVVTVPSSSLGTKTYTCNVDHKPSNTKVDKRV[… human IgG4 Fc with S228P (EU numbers) …]
light: LLQGSGDIQMTQSPSSVSASVGDRVTITCRASQGINSWLAWYQQKPGKAPKLLIYAASSLESGVPSRFSGSGSGTDFTLTISSLQPEDFATYYCHQADSFPYTFGQGTKLEIKRTVAAPSVFIFPPSDEQLKSGTASVVCLLNNFYPREAKVQWKVDNALQSGNSQESVTEQDSKDSTYSLSSTLTLSKADYEKHKVYACEVTHQGLSSPVTKSFNRGEC
- EC50 (human GLP1R [1]; independent experiments A, B, C, read-out: EC50 (M), CRE-dependent reporter activity, HEK293/CRE-Luc/hGLP1R): 1.72e-10 M
- Emax (% GLP-1), CRE-dependent reporter activity, HEK293/CRE-Luc/hGLP1R (human GLP1R [1]; relative to GLP-1): 93.7 % GLP-1
- EC50 (human GLP1R [2]; independent experiments A, B): 15.3 nM
- Emax (% GLP-1), b-Arrestin2 recruitment, HEK293/b-arrestin2/hGLP1R (human GLP1R [2]; relative to GLP-1): 99.7 % GLP-1
- Percent body weight change from day 0 (mean) ([3]; week 1): −7.9*** %
- Percent body weight change from day 0 (mean) ([3]; week 2): −9.5* %
- Percent body weight change from day 0 (mean) ([3]; week 4): −5.3%
- Percent body weight change from day 0 (mean) ([3]; week 8): 7.2%
- body weight (percent change from day 0) ([3]; 25 mg/kg single s.c. dose on day 0, weeks 1, 2, 4, 6, 8): significant reductions in body weight were observed at weeks 1 and 2 post-administration, but other time points did not reach significance

From patent publication US20250171516A1, “PEPTIDE ACIDS AS A GLP1R AGONIST AND ANTIBODY-DRUG CONJUGATES THEREOF” (Regeneron Pharmaceuticals, Inc., priority 2023, published 2025)
